Reference: PubChem BioAssay AID686978 (National Center for Advancing Translational Sciences (NCATS), 2013)
Among all 420,000 compounds or so, about 64,000 (15%) were called active. The shares of active, inactive and inconclusive entries below differ from those in the screen. Calls come from the whole dose curve; as a rule, active = well fitted inhibition curve with a large enough effect; inconclusive = small, poorly fitted or top-dose-only effect; inactive = flat fitted curve, though single readings scatter. Potencies of inconclusive entries are left out as doubtful fits.

assay: qHTS for Inhibitors of human tyrosyl-DNA phosphodiesterase 1 (TDP1): qHTS in cells in absence of CPT; conditions: DT40 Tdp1-/- hTDP1 cells, no CPT, ATP luminescence, 48 h; series mostly up to 46.2 µM; note: nearly all actives have a fitted effect of over 55% in size
How it was run: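 Luminescent ATP content (CellTiter-Glo) served as the growth readout. Knockout chicken DT40 cells expressing human TDP1 were exposed to compounds without camptothecin for a minimum 48 hr at 37 °C.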
Potency is the fitted concentration of half-maximal effect; tags give direction and shape of the fitted curve.

For `CCCCOc1ccccc1N1CCN(CCCN2C(=O)C3CCCN3C2=O)CC1` (centres undefined), which Potency is on record?
The Potency was “inactive”.

Which Potency does the source give for `N#Cc1c2n(c(=S)n(-c3ccccc3[N+](=O)[O-])c1=O)CCCCC2` here?
Its Potency is “inactive”.

Which Potency does the source give for `COc1ccc2c(C)c(CC(=O)NCc3ccc(C)cc3)c(=O)oc2c1OC` here?
Its Potency is “inactive”.

For `CCn1c(CCc2ccccc2)nc2ccccc21`, which Potency is on record?
Its Potency is inconclusive [inhibitor, single point].

Which Potency does the source give for `C=CCOC(=O)C1=C(C)OC(N)=C(C#N)C1c1ccccc1F` (centres undefined) here?
The Potency was inconclusive [inhibitor, single point].

With `O=C(COc1ccc(Br)cc1)Nc1ccc(CN2CCOCC2)cc1` as the compound, how does the Potency read?
Its Potency is inconclusive [inhibitor, partial curve].

Which Potency does the source give for `CCOC(=O)C1(CCc2ccccc2)CCN(C(=O)c2cc(C)nc(C)n2)CC1` here?
The Potency was inconclusive [inhibitor, partial curve].

For `CCC(C(=O)OCC(=O)Nc1ccc(Cl)c(S(=O)(=O)N(C)C)c1)c1ccccc1` (centres undefined), which Potency is on record?
The Potency was inconclusive [inhibitor, single point].

Which Potency does the source give for `COC(=O)C1=C(C)N(Cc2ccccc2)C(=NCc2cccc(C(F)(F)F)c2)N[C@H]1c1cccc(F)c1` here?
The Potency was active: 6.51 µM.

Which Potency does the source give for `Cn1cc(CN2CC3C[C@@H]4CC2C[C@H](C3)C4)c(-c2ccc3c(c2)OCCO3)n1` here?
Its Potency is inconclusive [inhibitor, partial curve, poor fit].

Which Potency does the source give for `CCCn1c(SCC(=O)NCc2ccc(OC)cc2)n[nH]c1=O` here?
Its Potency is “inactive”.

For `CCc1ccc(NC(=O)C(=O)NCCc2csc(-c3ccc(C(F)(F)F)cc3)n2)cc1`, which Potency is on record?
The Potency was inconclusive [inhibitor, partial curve, poor fit].

For `O=C(Nc1ccc([N+](=O)[O-])cc1)c1cc2ccccc2nc1Cl`, which Potency is on record?
Its Potency is inconclusive [inhibitor, single point].

With `COc1ccc(CNCc2cn(-c3cccc(F)c3)nc2-c2ccc(C)o2)cc1` as the compound, how does the Potency read?
The Potency was active: 16.4 µM.

With `O=C(CCNC(=O)c1ccc(Br)cc1)Nc1cccc(S(=O)(=O)N2CCCCC2)c1` as the compound, how does the Potency read?
Its Potency is active: 18.4 µM.

Which Potency does the source give for `CCOC(=O)c1sc(NC(=O)Nc2ccc(F)cc2)nc1C` here?
Its Potency is inconclusive [inhibitor, single point].

For `Cc1ccc(/C=C/c2ccc(N(C)C)cc2)[n+](C)c1`, which Potency is on record?
The Potency was active: 0.411 µM.

Which Potency does the source give for `CCc1ccccc1Nc1nc2ccccc2n1CC` here?
The Potency was inconclusive [inhibitor, single point].

With `Cc1cc(C)c(NC(=O)Cn2c(=O)n(Cc3ccc4c(c3)OCO4)c(=O)c3ccc(C(=O)NC4CCCCC4)cc32)c(C)c1` as the compound, how does the Potency read?
The Potency was “inactive”.

Which Potency does the source give for `Cc1cccc(-c2ccc3[nH]c4c(c3c2)CCN2C[C@@H]([C@H](C)OC(=O)Nc3ccccc3C)[C@@H](N(C)C(=O)Nc3ccccc3C)C[C@@H]42)c1` here?
The Potency was active: 25.9 µM.

With `O=C(NCc1ccccc1F)c1ccc(CN2CC(=O)N3CCCCC3C2=O)cc1` (centres undefined) as the compound, how does the Potency read?
Its Potency is “inactive”.

Which Potency does the source give for `Cc1cc(-c2ccccc2)nc2cc(C(=O)N(Cc3ccccc3)Cc3ccccc3)nn12` here?
The Potency was inconclusive [inhibitor, single point].

For `COCCN1C[C@@H](CO)O[C@@H](n2cnc3c(NCCN(C)C)ncnc32)C1`, which Potency is on record?
Its Potency is inconclusive [inhibitor, single point].

For `N#C/C(=C\c1ccc(Cl)cc1)c1nc(-c2cc3ccccc3oc2=O)cs1`, which Potency is on record?
The Potency was “inactive”.

For `COc1ccc(S(=O)(=O)n2cnc3ccccc32)cc1`, which Potency is on record?
Its Potency is “inactive”.

For `CC(C)(C)c1cc(NC(=O)C2(C)CCN2C(=O)c2ccccc2CCc2ccccc2)no1` (centres undefined), which Potency is on record?
The Potency was active: 20.6 µM.

Which Potency does the source give for `O=C(C1=C[C@@H](C2CC2)C[C@@H](OCCCCO)O1)N1CCN(Cc2ccccc2)CC1` here?
Its Potency is “inactive”.

With `CSc1nc(-c2ccccc2)nc(C(Cl)Cl)n1` as the compound, how does the Potency read?
Its Potency is active: 2.31 µM.

With `CC1CN(S(=O)(=O)c2csc(C(=O)Nc3ccccc3)c2)CC(C)O1` (centres undefined) as the compound, how does the Potency read?
Its Potency is inconclusive [inhibitor, partial curve].

Which Potency does the source give for `CCOC(=O)c1c(C)nc2sc(C(=O)Nc3ccc(C(C)=O)cc3)c(N)c2c1-c1ccc(OC)cc1` here?
The Potency was inconclusive [inhibitor, single point].

Which Potency does the source give for `CCCCn1c(N)c(N(Cc2ccccc2OC)C(=O)COc2ccc(C)cc2)c(=O)[nH]c1=O` here?
The Potency was “inactive”.

With `COc1ccc(CCNc2nc(-c3cccnc3)cs2)cc1OC` as the compound, how does the Potency read?
The Potency was inconclusive [inhibitor, single point].

For `S=C(NCc1ccc2c(c1)OCO2)NC1CCN(Cc2ccccc2)CC1`, which Potency is on record?
Its Potency is inconclusive [inhibitor, single point].

With `C=CCOC(=O)C1=C[C@@H](c2ccc(C(F)(F)F)cc2)C[C@@H](OCc2ccc(CO)cc2)O1` as the compound, how does the Potency read?
Its Potency is inconclusive [inhibitor, single point].

Which Potency does the source give for `COc1ccc(CCNC(=O)c2ccc(CNc3nc(=S)[nH]c4ccccc34)cc2)cc1OC` here?
The Potency was inconclusive [inhibitor, partial curve, poor fit].

Which Potency does the source give for `C[C@H]1CCCCO[C@H](CN(C)C(=O)Nc2ccc(F)cc2)[C@@H](C)CN([C@@H](C)CO)C(=O)c2cc(NC(=O)Nc3ccc4c(c3)OCO4)ccc2O1` here?
Its Potency is inconclusive [inhibitor, full curve, poor fit].

With `Cc1ccc(O)c(NC(=O)c2cccc(NC(=O)c3ccco3)c2)c1` as the compound, how does the Potency read?
The Potency was active: 23.1 µM.

With `CN(C)c1cccc(C(=O)OCCCC(=O)c2ccc(F)cc2)c1` as the compound, how does the Potency read?
The Potency was “inactive”.

For `CCCn1c2ccccc2c2cnn(CC(=O)N3CCC(C)CC3)c(=O)c21`, which Potency is on record?
Its Potency is inconclusive [inhibitor, single point].

With `Cc1csc(NC(=O)c2ccc(C)c([N+](=O)[O-])c2)n1` as the compound, how does the Potency read?
Its Potency is active: 16.4 µM.

With `Cn1c(-c2ccc(Br)o2)nc2cc(Br)ccc21` as the compound, how does the Potency read?
The Potency was inconclusive [inhibitor, single point].

Which Potency does the source give for `CC/C(=N\NC(=O)COc1ccc(Br)cc1)c1ccc(OC)c(OC)c1` here?
Its Potency is inconclusive [inhibitor, partial curve, poor fit].

Which Potency does the source give for `CCOC(=O)c1c(-c2ccccc2)oc2cc(CN(C)C)c(O)c(CN(C)C)c12` here?
The Potency was inconclusive [inhibitor, single point].

With `CCOC(=O)c1sc2cccc(F)c2c1S(=O)(=O)N1CCN(c2cccc(Cl)c2)CC1` as the compound, how does the Potency read?
Its Potency is inconclusive [inhibitor, single point].

For `CCOC(=O)c1oc2ccccc2c1CN1CCCCC1`, which Potency is on record?
Its Potency is “inactive”.

Which Potency does the source give for `COc1cc(C(=S)N2CCCCC2)ccc1OCC(=O)Nc1ccccc1Cl` here?
Its Potency is active: 23.1 µM.

For `CCCN(CC(=O)Nc1ccccc1OC)C(=O)c1ccc(COc2ccccc2)o1`, which Potency is on record?
The Potency was inconclusive [inhibitor, single point].

Which Potency does the source give for `CCC1/C(=N\O)CC(c2ccco2)NC1c1ccco1` (centres undefined) here?
The Potency was “inactive”.

Which Potency does the source give for `CC(=O)OCCCN1c2ccccc2Nc2nnc(-c3ccccc3)cc21` here?
Its Potency is inconclusive [inhibitor, single point].

For `CC1CCN(c2ccc3c(c2)S(=O)(=O)c2cccc(C(=O)NC4CCCCC4)c2C3=O)CC1`, which Potency is on record?
Its Potency is active: 16.4 µM.

With `CCOC(=O)C1=C[C@@H](CC)N(S(=O)(=O)c2ccc([N+](=O)[O-])cc2)[C@H]1c1ccccc1` as the compound, how does the Potency read?
The Potency was inconclusive [inhibitor, single point].

Which Potency does the source give for `CCN1C(=O)[C@H]2[C@@H](c3ccc(-c4ccc(F)cc4)c(OC)c3)N[C@@](C)(C(=O)OC)[C@H]2C1=O` here?
The Potency was inconclusive [inhibitor, single point].

For `COc1ccc(CCNC(=O)Cc2ccc(Cl)cc2)cc1OC`, which Potency is on record?
Its Potency is “inactive”.

Which Potency does the source give for `CCn1c(C(=O)N2CCC(C(=O)NCc3cccs3)CC2)cc2sccc21` here?
The Potency was inconclusive [inhibitor, single point].

For `CCc1ccccc1NC(=O)Nc1cccn(Cc2ccccc2F)c1=O`, which Potency is on record?
Its Potency is inconclusive [inhibitor, single point].

For `Cc1ccc(NC(=O)CSc2nc3c(oc4ccccc43)c(=O)n2-c2ccc(F)cc2)c(C)c1`, which Potency is on record?
Its Potency is “inactive”.

Which Potency does the source give for `COc1cccc(COCC(O)CN2CCC(C(N)=O)CC2)c1` (centres undefined) here?
The Potency was “inactive”.

Which Potency does the source give for `O=C(O)CSc1c2c(nc3cc(C(=O)Nc4ccc(F)c(Cl)c4)ccc13)CCC2` here?
Its Potency is “inactive”.

With `COC(=O)c1ccc(CSc2nnc(Nc3ccc(C)cc3)s2)o1` as the compound, how does the Potency read?
The Potency was inconclusive [inhibitor, single point].

With `CCC1CCCCN1C(=S)NC(=O)c1ccc(F)c(S(=O)(=O)N2CCOCC2)c1` (centres undefined) as the compound, how does the Potency read?
Its Potency is inconclusive [inhibitor, single point].

With `COC(=O)c1cc(C(=O)Nc2nnc(C3CC3)s2)cc([N+](=O)[O-])c1` as the compound, how does the Potency read?
Its Potency is “inactive”.

Which Potency does the source give for `COc1ccccc1NC(=O)c1cc2c(=O)oc3ccc(C)cc3c2s1` here?
The Potency was inconclusive [inhibitor, single point].

Which Potency does the source give for `O=C(c1cccc([N+](=O)[O-])c1)N1CCN(C/C=C/c2ccccc2)CC1` here?
The Potency was inconclusive [inhibitor, single point].

With `O=C(O)C1CSC2(c3ccc(Br)cc3)CCC(=O)N12` (centres undefined) as the compound, how does the Potency read?
The Potency was inconclusive [inhibitor, partial curve].

For `CCOC(=O)c1ccc(N2CCN(c3cc(C)ccc3C)CC2)c(NC(=O)Nc2ccccc2)c1`, which Potency is on record?
The Potency was active: 2.91 µM.

Which Potency does the source give for `CCOc1cc(C2C(C(=O)c3ccccc3)=C(C(=O)OC)Nc3nnnn32)ccc1O` (centres undefined) here?
Its Potency is “inactive”.

For `O=C(Nc1ccc(Cl)cc1)N1CCCN(Cc2ccc(F)cc2)C1`, which Potency is on record?
Its Potency is active: 20.6 µM.

Which Potency does the source give for `Cc1cc(OCC(=O)OCC(=O)NCC2CCCO2)ccc1Cl` (centres undefined) here?
Its Potency is “inactive”.

For `Cc1cccc(NS(=O)(=O)c2ccc(NC(=O)CN(c3cc([N+](=O)[O-])ccc3C)S(C)(=O)=O)cc2)c1`, which Potency is on record?
The Potency was inconclusive [inhibitor, single point].
